Counter-ions that a name gives are not always drawn. ± gives the standard deviation of the averaged measurements. Over roughly 2,000 compounds, “relative cell viability vs DMSO, compound alone” has its median near 1.1; the lowest 2% begin near 0.29. Some of the results follow.
Each compound was assayed on TE10 (assay: relative cell viability vs DMSO, compound alone (fraction); TE10 is an esophageal squamous carcinoma line; higher = less cytotoxic). Conditions: 2 µM; 48 h.
Description: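 TE10 ESCC cells (1,000/well, 384-well plates) were treated with Selleck bioactive library compounds at 2 uM alone for 48 h. Viability was read by CellTiter-Glo and expressed relative to DMSO wells. Two technical replicates (A, B).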
With `C1N2CN3CN1CN(C2)C3` [Methenamine] the relative cell viability was 1.13 ± 0.084. Compound `CCCCCOc1ccc(-c2ccc(-c3ccc(C(=O)N[C@H]4C[C@@H](O)[C@@H](O)NC(=O)[C@@H]5[C@@H](O)[C@@H](C)CN5C(=O)[C@H]([C@@H](C)O)NC(=O)[C@H]([C@H](O)[C@@H](O)c5ccc(O)cc5)NC(=O)[C@@H]5C[C@@H](O)CN5C(=O)[C@H]([C@@H](C)O)NC4=O)cc3)cc2)cc1` has a relative cell viability of 1.05 ± 0.013. `CC(C)c1nc(N(C)S(C)(=O)=O)nc(-c2ccc(F)cc2)c1/C=C/[C@@H](O)C[C@@H](O)CC(=O)O` [Rosuvastatin Calcium] was tested, and the relative cell viability was 0.961 ± 0.03. `O=C(COc1cccc2c(=O)[nH]ccc12)c1ccccc1` gave a relative cell viability of 1.19 ± 0.027. In the case of `CC(=O)N[C@@H](CC(C)C)C(=O)N[C@@H](CC(C)C)C(=O)N[C@H](C=O)CCCNC(=N)N` [Leupeptin Hemisulfate], the relative cell viability is reported as 1.09 ± 0.015. `CS(=O)(=O)c1ccc([C@@H](O)[C@@H](CF)NC(=O)C(Cl)Cl)cc1` [Florfenicol] was tested, and the relative cell viability was 1.18 ± 0.079. Compound `NC(=O)N1CCC(CC(=O)N2CCC([C@H]3c4ncc(Br)cc4CCc4cc(Cl)cc(Br)c43)CC2)CC1` [Lonafarnib] has a relative cell viability of 1.06 ± 0.049. In the case of `C[C@H](N[C@@H](CCc1ccccc1)C(=O)O)C(=O)N1CCC[C@H]1C(=O)O` [Enalaprilat Dihydrate], the relative cell viability is reported as 1.12 ± 0.029. Work on `O=C(Nc1cc(C(F)(F)F)cc(C(F)(F)F)c1)c1cc(Cl)ccc1O` yielded a relative cell viability of 0.18 ± 0.0024. In the case of `COC(=O)[C@H](c1ccccc1Cl)N1CCc2sccc2C1` [Clopidogrel], the relative cell viability is reported as 1.237 ± 0.0085. Compound `COCCCC/C(=N\OCCN)c1ccc(C(F)(F)F)cc1` [Fluvoxamine maleate] has a relative cell viability of 1.21 ± 0.041. With `CC1(C)CCC(c2ccc(Cl)cc2)=C(CN2CCN(c3ccc(C(=O)NS(=O)(=O)c4ccc(N[C@H](CCN5CCOCC5)CSc5ccccc5)c(S(=O)(=O)C(F)(F)F)c4)cc3)CC2)C1` [ABT-263 (Navitoclax)] the relative cell viability was 0.911 ± 0.11. Work on `O=C(COc1ccc(C(=O)c2ccccc2)cc1)NC1CCN(Cc2ccccc2)CC1` [AdipoRon] yielded a relative cell viability of 1.047 ± 0.009. For `Nc1nc(F)nc2c1ncn2[C@@H]1O[C@H](COP(=O)(O)O)[C@@H](O)[C@@H]1O` [Fludarabine Phosphate], the relative cell viability was 0.214 ± 0.058. For `O=C(NOCC1CC1)c1ccc(F)c(F)c1Nc1ccc(I)cc1Cl`, the relative cell viability was 0.76 ± 0.067. `Oc1c(Br)cc(Br)c2cccnc12` [Broxyquinoline] showed a relative cell viability of 1.15 ± 0.051. `Nc1ccc2ncnc(NCCc3ccc(Oc4ccccc4)cc3)c2c1` showed a relative cell viability of 0.896 ± 0.039. For `CN1CCN(S(=O)(=O)c2ccc(-c3cnc(N)c(C(=O)Nc4cccnc4)n3)cc2)CC1`, the relative cell viability was 0.961 ± 0.12. Compound `COc1ccc(-c2coc3cc(O)ccc3c2=O)cc1` [Formononetin] has a relative cell viability of 0.901 ± 0.044.

Source: the supplement of paper PMC10670038
